From the RNAGym collection of RNA variant scans (doi:10.7554/elife.90254)
Read counts are not given, so values of variants with three or more changes are uncertain.

B1: LINE1-mini (parent)
chain: GGCAGAGCUCAACACAGCGUGGCAAAGUGGCUGUGGCUAGACUGCC

Variants of: B1
Assay: self-cleavage, relative activity (ratio to wild type); higher = more cleavage; in vitro, sequencing; the parent is a self-cleaving ribozyme

Variant | self-cleavage
C10A G17U G27U G36U U43C | 0.01
C10A U20A A24U C37U | 0
C10A G17A C23A | 0.03
C10A G30U G36C G44A | 0.02
C10A G35C C46U | 0.04
C10A G21U A25U G36A | 0.01
C10A G35C G40A U43A | 0.01
C10A G17A G21C G40U | 0.01
C10G A12U A16C A25C C42G | 0.01
C10A U32A G40A | 0.06
C10A G19U G27A G33C | 0.01
C10A C18U G30C U38A A39G | 0.05
C10A G22C C42A | 0.05
C10A G21C G33C U38A G40A | 0
C10A G19A U34G | 0.04
C10A G27A C31A U43A | 0.06
C10A G33U G44C | 0.03
C10G A11G G30U U38A C42A | 0.01
C10A G27U C37A | 0.01
C10A G27U C37U | 0.02
C10A G27U C45U | 0.77
C10G C13A G21U G40A | 0.01
C10A G21C U34G | 0.05
C10A C18U A24G G36C G40C | 0

Variant | self-cleavage
C10A G30C C37U U43A | 0.01
C10G A14G G27U G44A C45A | 0.02
C10A G21U G22C G36C | 0.02
C10A U20G C46U | 0.09
C10A G17C G44C | 0.05
C10G A14G U28C C31U C45U | 0.01
C10G C13U A24C | 0.03
C10G A24G C42G U43C | 0.01
C10A G17U A26U | 0.01
C10A G21U G36C | 0.01
C10A G21U G36U | 0.02
C10A U32C C45G | 0.03
C10G A14C G30U | 0.02
C10A C18U A24U | 0.01
C10G A26C G44A | 0.02
C10A C23A C37U C42A | 0.01
C10G C13U C23U | 0.05
C10A U20C G35A | 0.01
C10A U20C G35U | 0.02
C10A G21U U28G G29A C31U | 0.03
C10A C31A C37G A41U | 0
C10A C18G G27C C37U | 0.01
C10G A25G U28C | 0.05
C10A G21A A25C C46U | 0.17

Variant | self-cleavage
C10A U34C A39G | 0.03
C10A G21C G27U U32A | 0.02
C10G C13A G22A | 0.02
C10A U20G C31A A39U | 0.03
C10G A11C C46A | 0.01
C10A C23A G33C | 0
C10A U34G G40A | 0.03
C10G A14G G19U | 0.02
C10A G22U A26C G29U G35U G36A C42U | 0
C10G A16C G36A | 0.04
C10G A12U C37G | 0.02
C10G A12U C37U | 0.02
C10A G17U U20C G29U G30C A41U | 0.02
C10G C13G G21C C23U | 0.02
C10G A26U G36U | 0.02
C10G C13U A41G C42U C46U | 0
C10G A11C A14C G17A | 0.07
C10A C42A C46A | 0.01
C10G A24U A26C | 0.14
C10G A14U G21U | 0.03
C10A C18A U38G | 0
C10G A14C A16C G21A U43G G44A | 0.02
C10G A26C G40C | 0.01
C10A G17U U32C G40C | 0

Variant | self-cleavage
C10A U32G C37U A39C | 0
C10A G17A C18G U34A C42A | 0.05
C10A G29C U34G G40U | 0.02
C10A U28G C45A | 0.01
C10G A25C U43A | 0.01
C10A C18G G29U | 0.03
C10A C15U C23G | 0.1
C10A C15U C23A | 0.04
C10A G19U G35C | 0
C10G A12G G17C U20C G22C A26U G27A | 0.02
C10A G17C A24U G29A | 0.02
C10A C23G G27C C42U | 0.05
C10A G19A G22C C46A | 0.01
C10A G22C C37U | 0.01
C10A G29U G35C C37G | 0.01
C10A C23U A39C C42G | 0
C10G A11U A16G G19U A39C G40C | 0.01
C10A C37A U38C | 0.01
C10A G35U U38A | 0
C10A G17C C18G C23A A25U U43A | 0.01
C10A C31U U32A | 0.04
C10A G17U G21U G22U G36U | 0.01
C10A C18G C37A | 0.01
C10A C15U G35C | 0.02

Variant | self-cleavage
C10G A14G A41U C42U | 0.02
C10G A25C U28C C31G | 0.05
C10G A11G A14C | 0
C10A C31A C42G | 0.01
C10A G30U U34A | 0.05
C10A U32C U38A U43A | 0.02
C10A G30U C31G U43C | 0
C10A U28G U34G | 0.02
C10A U28C U32G G35U | 0.02
C10A G30A G44A | 0.01
C10A G19A G35U G40C | 0.3
C10G C13A C23A G27C C31A | 0.08
C10A G33U A39G | 0.01
C10A G33C A39G C46G | 0
C10A C37A C46A | 0.05
C10G A11U A25C | 0.01
C10A G17U G21U | 0.15
C10A U28C G29U G30U C31A C42U | 0.01
C10G A16C C42A | 0.01
C10A G29A C46G | 0.02
C10A C31U G33C | 0.05
C10A G29C G40A | 0.05
C10G A12G C15A G36C | 0.02
C10A C23G C37A | 0

Variant | self-cleavage
C10A G17C G29U U32A U34G G40C C45G | 0
C10A G17C U28G U32G U38G | 0.01
C10A C23A A25U G27C | 0
C10A C31A G36U | 0
C10A C18G U43G | 0
C10A G22A A24G G35C | 0.02
C10A G22C G27U U43C | 0
C10A G17U U20A A25C | 0
C10G C13A U20C A41C | 0
C10A G35U G44U | 0.02
C10A G35U G40U | 0.02
C10A U32A A39U | 0.02
C10A C18U G21U G22U U32A | 0.03
C10A G22C A26G | 0.01
C10A G19C G27A U34C | 0.01
C10G A25U C31A | 0.02
C10G A25G A26U U43A C45U | 0.01
C10A G22U G30U | 0.01
C10A G29C C37A U38A | 0.04
C10G A12C G17C U20C C46A | 0
C10A G21C C37A | 0.01
C10A G21C C37U | 0
C10A C23G A26C C31G U38C C42A | 0
C10G C13U G33U C37G | 0.03

Variant | self-cleavage
C10A G22A C45U | 0.03
C10A G21C C46A | 0.02
C10A G17C G21A G22U | 0.03
C10A G19A G29A C31A | 0.03
C10G A14G A16U G17A C23G U34G | 0.01
C10A G27A G36C C37G | 0.01
C10A G30A C37A | 0.04
C10A U20C U28G G33C G44C | 0.01
C10A C37U U43C C45U | 0
C10A G30C C46G | 0.07
C10G A24C U32A | 0.05
C10A C31A C46G | 0.01
C10G A25U A39U | 0.17
C10G A14U G21C G40C C42G C45U | 0.01
C10G A16U G36C | 0.03
C10A G19U G30C A39U G44C | 0.04
C10A C18U G36A G40C A41G C45A | 0.01
C10G A11U U38A | 0.01
C10A G33C G36U | 0.02
C10G A26U A39U | 0.33
C10G A16G A24C C31A | 0.02
C10A G19A U34A A41C | 0.02
C10A G29A U34A | 0.03
